In patent US20240336638A1, “IMIDAZOLE COMPOUND, AND INTERMEDIATE AND APPLICATION THEREOF” (priority 2021, published 2024):
The name of at least one read-out is uncertain.

System: AA-induced platelet aggregation
Test: Inhibitory effect on AA-induced platelet aggregation in rats in vitro (washed platelets)
Format: cell-based, rat
Conditions: at 4 minutes, AA 800 μM; for Aggregation rate: mean ± SD, n = 3; for Inhibition rate (%): vs AA model group
Description: Several experimental groups were established, including a blank control group, an AA (arachidonic acid) model control group, and various test compounds. Each test compound had three concentration groups: 10^−3 M, 10^−4 M, and 10^−5 M. The data from the blank and model control group were shared among the different drug concentration groups as a control.
Male SD rats were anesthetized with 3% chloral hydrate (300 mg/kg) through intraperitoneal injection. After being fixed in a supine position, the skin of the neck was cut about 3 cm, bluntly separated with a hemostat, and the trachea was exposed after the common carotid artery was separated. The distal end of the common carotid artery was ligated with a fine thread, and the proximal end was clamped with an arterial clamp for vascular intubation. After the intubation was fixed, the artery clamp was opened, and the blood was placed into a blood collection tube containing 3.8% trisodium citrate so that the blood was mixed well with the 3.8% trisodium citrate in a volume ratio of 9:1.
The prepared anticoagulant blood was mixed well and centrifuged for 10 minutes at 500 rpm, then the upper layer of plasma was aspirated to obtain platelet-rich plasma (PRP), and the PRP was centrifuged again for 5 minutes at 3,000 rpm. The supernatant was discarded, and the platelet precipitate was obtained, which was washed once with Ca^2+-free HEPES-Tyrode's buffer, then centrifuged at 3,000 rpm for 5 minutes. The supernatant was discarded, and the platelets were resuspended with Ca^2+-free HEPES-Tyrode's buffer to obtain the washed platelets.
First, 300 μL of Ca^2+-containing HEPES-Tyrode's solution was taken into the test cup, put into the test wells, and calibrated by pressing the “PPP” key. Subsequently, 240 μL of the washed platelets were added to the test cup, then added with 30 μL of different concentrations of drug solution, incubated for 10 minutes at 37° C. in a preheated bath, and then put into the test wells. 3 μL of 100× CaCl2 solution (final concentration of 0.2 g/L) and 30 μL of inducer (final concentration of AA of 800 μM) were added to the test wells, and then the “Start” key was pressed immediately. The maximum aggregation rate was recorded every 60 s. The measurement was repeated three times for each concentration for 10 minutes, and the aggregation curve was plotted.
The platelet aggregation inhibition rate was calculated with the following formula:
Inhibition rate (%)=(maximum aggregation rate in the model control group−maximum aggregation rate in the administration group)/maximum aggregation rate in the model control group×100%
All data were expressed as mean±standard deviation (mean±SD). SPSS 22.0 software was used for statistical analysis of the data. Intergroup data were analyzed using one-way ANOVA, with P<0.05 considered as statistically significant and P<0.01 considered as highly significant.

Structure (SMILES) | Aggregation rate (1 * 10^−3 M) | Inhibition rate (%) (1 * 10^−3 M) | Aggregation rate (1 * 10^−4 M) | Inhibition rate (%) (1 * 10^−4 M)
O=C(O)[C@@H]1C[C@H]1c1ccc(Cn2cnc(F)c2)cc1Cl [Compound 1, (1R,2R)-2-(2-Chloro-4-((4-fluoro-1H-imidazol-1-yl)methyl)phenyl)cyclopropane-1-carboxylic acid] | 20.8 ± 1.4 | 49.5 | 35.2 ± 4.3 | 14.6
O=C(O)[C@@H]1C[C@H]1c1ccc(Cn2ccnc2)cc1Cl [Compound 2, (1R,2R)-2-(4-((1H-Imidazol-1-yl)methyl)-2-chlorophenyl)cyclopropane-1-carboxylic acid] | 31.2 ± 2.5 | 24.3 | 33.1 ± 0.3 | 19.7
O=C(O)[C@@H]1C[C@H]1c1ccc(Cn2cnc(Cl)c2)cc1Cl [Compound 3, (1R,2R)-2-(2-Chloro-4-((4-chloro-1H-imidazol-1-yl)methyl)phenyl)cyclopropane-1-carboxylic acid] | 42.3 ± 2.4 | −2.7 | 46.0 ± 5.0 | −11.7
Cc1cc([C@@H]2C[C@H]2C(=O)O)ccc1Cn1cnc(Cl)c1 [Compound 4, (1R,2R)-2-(4-((4-Chloro-1H-imidazol-1-yl)methyl)-3-methylphenyl)cyclopropane-1-carboxylic acid] | 19.9 ± 1.9 | 51.7 | 25.9 ± 4.0 | 37.1
Cc1cc(Cn2cnc(F)c2)ccc1[C@@H]1C[C@H]1C(=O)O [Compound 5, (1R,2R)-2-(4-((4-Fluoro-1H-imidazol-1-yl)methyl)-2-methylphenyl)cyclopropane-1-carboxylic acid] | 18.8 ± 1.3 | 54.4 | 29.5 ± 0.9 | 28.4
Cc1cc([C@@H]2C[C@H]2C(=O)O)ccc1Cn1ccnc1 [Compound 6, (1R,2R)-2-(4-((1H-Imidazol-1-yl)methyl)-3-methylphenyl)cyclopropane-1-carboxylic acid] | 28.5 ± 2.1 | 30.8 | 32.6 ± 0.9 | 20.9
Cc1cc(Cn2ccnc2)ccc1[C@@H]1C[C@H]1C(=O)O [Compound 7, (1R,2R)-2-(4-((1H-Imidazol-1-yl)methyl)-2-methylphenyl)cyclopropane-1-carboxylic acid] | 15.4 ± 1.1 | 62.6 | 27.7 ± 2.3 | 32.8
Cc1cc([C@@H]2C[C@H]2C(=O)O)ccc1Cn1cnc(F)c1 [Compound 8, (1R,2R)-2-(4-((4-Fluoro-1H-imidazol-1-yl)methyl)-3-methylphenyl)cyclopropane-1-carboxylic acid] | 27.1 ± 1.4 | 34.2 | 28.4 ± 3.8 | 31.1
Cc1cc(Cn2cnc(Cl)c2)ccc1[C@@H]1C[C@H]1C(=O)O [Compound 9, (1R,2R)-2-(4-((4-Chloro-1H-imidazol-1-yl)methyl)-2-methylphenyl)cyclopropane-1-carboxylic acid] | 31.7 ± 2.0 | 23.1 | 45.4 ± 2.9 | −10.2
O=C(O)[C@@H]1C[C@H]1c1ccc(Cn2ccnc2)c(Cl)c1 [Compound 10, (1R,2R)-2-(4-((1H-Imidazol-1-yl)methyl)-3-chlorophenyl)cyclopropane-1-carboxylic acid] | 18.1 ± 2.1 | 56.1 | 34.8 ± 4.7 | 15.5
O=C(O)[C@@H]1C[C@H]1c1ccc(Cn2cnc(Cl)c2)c(Cl)c1 [Compound 11, (1R,2R)-2-(3-Chloro-4-((4-chloro-1H-imidazol-1-yl)methyl)phenyl)cyclopropane-1-carboxylic acid] | 8.1 ± 0.4 | 80.3 | 18.9 ± 1.8 | 54.1
O=C(O)[C@@H]1C[C@H]1c1ccc(Cn2ccnc2)cc1F [Compound 12, (1R,2R)-2-(4-((1H-Imidazol-1-yl)methyl)-2-fluorophenyl)cyclopropane-1-carboxylic acid] | 20.4 ± 0.9 | 50.5 | 40.2 ± 1.5 | 2.4
O=C(O)[C@@H]1C[C@H]1c1ccc(Cn2cnc(Cl)c2)cc1F [Compound 13, (1R,2R)-2-(4-((4-Chloro-1H-imidazol-1-yl)methyl)-2-fluorophenyl)cyclopropane-1-carboxylic acid] | 10.7 ± 1.5 | 74.0 | 28.6 ± 1.8 | 30.6
O=C(O)[C@@H]1C[C@H]1c1ccc(Cn2cnc(Cl)c2)c(F)c1 [Compound 14, (1R,2R)-2-(4-((4-Chloro-1H-imidazol-1-yl)methyl)-3-fluorophenyl)cyclopropane-1-carboxylic acid] | 27.2 ± 2.7 | 34.0 | 29.4 ± 2.1 | 28.6
O=C(O)[C@@H]1C[C@H]1c1ccc(Cn2ccnc2)c(F)c1 [Compound 15, (1R,2R)-2-(4-((1H-Imidazol-1-yl)methyl)-3-fluorophenyl)cyclopropane-1-carboxylic acid] | 6.8 ± 0.5 | 83.5 | 27.9 ± 1.2 | 32.3
O=C(O)[C@@H]1C[C@H]1c1ccc(Cn2cnc(F)c2)c(F)c1 [Compound 16, (1R,2R)-2-(3-Fluoro-4-((4-fluoro-1H-imidazol-1-yl)methyl)phenyl)cyclopropane-1-carboxylic acid] | 21.6 ± 1.9 | 47.6 | 34.3 ± 4.0 | 16.7
O=C(O)[C@@H]1C[C@H]1c1ccc(Cn2cnc(F)c2)cc1F [Compound 17, (1R,2R)-2-(2-Fluoro-4-((4-fluoro-1H-imidazol-1-yl)methyl)phenyl)cyclopropane-1-carboxylic acid] | 11.1 ± 1.3 | 73.1 | 24.8 ± 4.1 | 39.8
O=C(O)[C@@H]1C[C@H]1c1ccc(Cn2cnc(F)c2)c(Cl)c1 [Compound 18, (1R,2R)-2-(3-Chloro-4-((4-fluoro-1H-imidazol-1-yl)methyl)phenyl)cyclopropane-1-carboxylic acid] | 8.4 ± 1.7 | 79.6 | 26.0 ± 3.7 | 36.9
O=C(O)[C@@H]1C[C@H]1c1ccc(Cn2ccnc2)cc1 [Compound 19, (1R,2R)-2-(4-((1H-Imidazol-1-yl)methyl)phenyl)cyclopropane-1-carboxylic acid] | 14.4 ± 2.2 | 65.0 | 23.0 ± 2.1 | 44.2
O=C(O)[C@H]1C[C@@H]1c1ccc(Cn2ccnc2)cc1 [Compound 20, (1S,2S)-2-(4-((1H-Imidazol-1-yl)methyl)phenyl)cyclopropane-1-carboxylic acid] | 14.8 ± 1.4 | 64.1 | 28.6 ± 0.3 | 30.6
O=C(O)[C@H]1C[C@@H]1c1ccc(Cn2cnc(F)c2)cc1Cl [Compound 21, (1S,2S)-2-(2-Chloro-4-((4-fluoro-1H-imidazol-1-yl)methyl)phenyl)cyclopropane-1-carboxylic acid] | 21.0 ± 1.6 | 49.0 | 35.4 ± 4.4 | 14.1
O=C(O)[C@H]1C[C@@H]1c1ccc(Cn2ccnc2)cc1Cl [Compound 22, (1S,2S)-2-(4-((1H-Imidazol-1-yl)methyl)-2-chlorophenyl)cyclopropane-1-carboxylic acid] | 31.6 ± 2.7 | 23.3 | 33.5 ± 0.9 | 18.7
